The values that follow come from ChEMBL document CHEMBL4888484, “Replenishing the malaria drug discovery pipeline: Screening and hit evaluation of the MMV Hit Generation Library 1 (HGL1) against asexual blood stage Plasmodium falciparum ,using a nano luciferase reporter read-out” (2022).

Hit rate of the full screen: of about 150,000 compounds, about 540 (0.36%) showed an effect of 50% or more. This is one part of the list.

This assay has as its system Plasmodium falciparum. The assay is described as follows: Primary screen in NF54 nanoGlo assay, in single point, at 2uM, 72h; a lower Z score goes with more inhibition. Conditions: timepoint 72 hour. It is filed as functional, Erythrocyte.
What is called % Inhibition is the relative decrease from the control value, in per cent. For the compound `O=C1NCCCn2cc(S(=O)(=O)NCc3ccncc3)cc21`, the “% Inhibition” value is given as -11% and the Z score came to 1.24.
On the same counts, the results for `CCn1ccnc1CNc1ccc(OCC(F)(F)C(F)F)nc1` are -12% and 1.53.
`CC/C=C(/CN1C[C@H](CO)[C@@H](CO)C1)c1ccccc1`: the “% Inhibition” value is -10% and the Z score was found to be 1.52.
On the same counts, the results for `O=C(Cc1c(F)cccc1Cl)Nc1cnc(-c2ccc(F)cc2)nc1` are -23% and 2.03.
On the same counts, the results for `COc1ncccc1[C@H]1CCN(C(=O)c2sccc2CN(C)C)C1` are -6% and 0.74.
On the same counts, the results for `c1cc(CNc2ccc3scnc3c2)ccn1` are 3% and -0.38.
`O=C(Nc1ccccc1)c1cccc2c(=O)c3c([nH]c12)CCC3`: the “% Inhibition” value is -10% and the Z score is 1.99.
On the same counts, the results for `Cc1ccccc1OCCn1cnc2cc3c(cc21)OCCO3` are -5% and 0.54.
On the same counts, the results for `CN(CCc1ccccn1)C(=O)[C@@]12CCCC[C@H]1N(C)C(=O)CC2` are -12% and 1.13.
On the same counts, the results for `CC(C)NC(=O)NC(=O)CN(C)C1CCCCC1` are 2% and -0.26.
In the case of `Cc1[nH]c2c(CN3CC(N4CCOCC4)C3)cccc2c1C`, the “% Inhibition” value was 7% and the Z score is recorded as -0.82.
On the same counts, the results for `O=C(Nc1ccccc1-c1ccccc1)c1cnc(OC2CCOCC2)c(Cl)c1` are 3% and -0.62.
With `FC(F)(F)c1cnc(Cc2ccc(OCc3ccc(Cl)cc3)cc2)c(Cl)c1`, the “% Inhibition” value is recorded as -3% and the Z score is reported as 0.4.
Turning to `Cc1n[nH]c([C@@H]2CCN(C(=O)C3CCOCC3)CCN2CC2CCOCC2)n1`, the “% Inhibition” value was -1% and the Z score was 0.17.
On the same counts, the results for `O=C(Nc1ccc2c(c1)OCCO2)c1nn(-c2ccc(F)cc2)c2ccccc2c1=O` are -14% and 1.74.
On the same counts, the results for `CN(Cc1csc(-c2ccccc2)n1)Cc1nccn1C` are -9% and 1.63.
Regarding `COc1ccc(Nc2nnc(/C=C/c3ccccc3)c(=O)n2N)cc1`, the “% Inhibition” value was found to be 43% and the Z score is -5.59.
As for `COc1ccccc1OCC(=O)N1CCC[C@H](Nc2cccc(F)c2)C1`, the “% Inhibition” value is listed as -3% and the Z score came to 0.51.
On the same counts, the results for `Cc1ccc2ncc(CN3CCC(CC(=O)N4CCCC4)CC3)n2c1` are -2% and 0.29.
On the same counts, the results for `CCn1cnnc1C[C@H]1CCN(S(=O)(=O)c2ccccc2)C1` are 6% and -1.02.
On the same counts, the results for `CC1=CCCC(C)C1CNCCc1c(C)noc1C` (centres undefined) are 4% and -0.39.
For `O=C(Cc1noc2ccccc12)Nc1cc(N2CCCC2=O)ccc1Cl`, the “% Inhibition” value was -17% and the Z score worked out at 2.27.
On the same counts, the results for `COc1ccc(C(=O)[C@@H]2[C@@H]3CCCN3[C@]3(C(=O)Nc4ccccc43)[C@@]23C(=O)Nc2ccccc23)cc1OC` are -13% and 1.71.
`Cc1nn2c3ccccc3nc2n(Cc2ccccc2)c1=O`: the “% Inhibition” value came to 8% and the Z score was -1.16.
Turning to `CC(C)S(=O)(=O)NC(=O)CC1CC(C)(C)C1`, the “% Inhibition” value was -1% and the Z score was found to be 0.09.
As to `CC(C)(C)C(=O)NCc1cncc(-c2cccs2)c1`, the “% Inhibition” value is listed as 10% and the Z score was -1.34.
On the same counts, the results for `Cn1cc(N2CC(NC(=O)CC3CCCO3)CC2=O)cn1` (centres undefined) are -5% and 0.88.
On the same counts, the results for `CC(C)n1c(=O)sc2cc(NS(=O)(=O)c3ccccc3Br)ccc21` are 1% and -0.12.
On the same counts, the results for `NC[C@H]1Cc2cccc(-c3ccc4[nH]ccc4c3)c2O1` are 8% and -1.2.
In the case of `CS(=O)(=O)c1ccc(-n2nc(C3CC3)nc2Cc2ccc3c(c2)OCO3)cc1`, the “% Inhibition” value is given as -15% and the Z score is on record as 1.56.
Regarding `CC(C)[C@H](NC(=O)c1ccco1)C(=O)NCc1ncccc1O`, the “% Inhibition” value is reported as -22% and the Z score is listed as 4.15.
On the same counts, the results for `Cc1cc(C(=O)NCc2cc3n(n2)CCNC3)cc2sc(N)nc12` are 2% and -0.23.
For `CC(=O)c1ccc(N2C(=O)[C@@H]3C(Cc4c[nH]c5ccccc45)NC4(C(=O)Nc5c4ccc(C)c5C)[C@@H]3C2=O)cc1` (some centres undefined), the “% Inhibition” value is on record as 7% and the Z score was -1.32.
On the same counts, the results for `Cc1ncsc1CNCc1cc(Br)cc2c1OCC2` are -9% and 1.25.
On the same counts, the results for `COc1ccccc1-c1c(C)nn2c(N3CCN(c4ccc(F)cc4)CC3)cc(C)nc12` are -1% and 0.09.
On the same counts, the results for `COc1ccccc1N(CCC(N)=O)C(=O)CN1CC(C)OC(C)C1` (centres undefined) are -18% and 2.32.
As to `COCc1ccc(NC(=O)N[C@H]2CCO[C@@H]2c2ccncc2)cc1C(F)(F)F`, the “% Inhibition” value was -15% and the Z score worked out at 1.88.
On the same counts, the results for `CC(C)c1ccc(CN2C[C@H]3CCCC(=O)N[C@H]3C2)cc1` are 28% and -3.13.
On the same counts, the results for `Cc1ncsc1C(=O)N(C)Cc1ccc2c(c1)OCO2` are 9% and -1.17.
On the same counts, the results for `CCCN(C)S(=O)(=O)Cc1ccc(C)cc1F` are -6% and 0.88.
Take `CO[C@H]1C[C@H]2CC[C@@H](C1)N2C(=O)c1ccc(-c2ccccc2)cc1`: the “% Inhibition” value is listed as -1% and the Z score turned out to be 0.17.
For the compound `CCC(C)N(CC(=O)N(CCc1ccccc1)Cc1ccco1)C(=O)CC(C)CC(C)(C)C` (centres undefined), the “% Inhibition” value is on record as -8% and the Z score turned out to be 1.36.
